Laboratory results taken from PubChem BioAssay AID1460 (National Center for Advancing Translational Sciences (NCATS), 2008).
Hit rate of the full screen: of about 270,000 compounds, about 5,800 (2.1%) were called active. The inconclusive results got no clear call from the source; some entries with a clear call stand among them for comparison. Calls follow the shape of the dose curve; as a rule, active = well fitted inhibition curve with a large enough effect; inconclusive = small, poorly fitted or top-dose-only effect; inactive = flat fitted curve, though single readings scatter. Where the call is inconclusive, the potency comes from a doubtful curve fit.

The molecules below were run against Microtubule-associated protein tau (Homo sapiens) (UniProt P10636) (assay: qHTS for Inhibitors of Tau Fibril Formation, Thioflavin T Binding). Settings: recombinant tau K18 P301L (four-repeat tau fragment), heparin-induced fibrillization, ThT fluorescence; series mostly up to 57.4 µM.
How it was run: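 Heparin-induced (20 uM) aggregation of recombinant human K18 P301L tau, 15 uM unlabeled with 0.24 uM labeled, pH 7 acetate buffer, 6 hr at 37 C with compound. Fibrils quantified by 30 uM ThT fluorescence after 1 hr ambient incubation.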
Also: nearly all actives have a fitted effect of over 55% in size.
Potency is read from the fitted curve at half-maximal effect; tags tell the direction and shape of the fitted curve.

Chain of UniProt P10636 (P10636 whole entry, looked up, the tested form may be a part): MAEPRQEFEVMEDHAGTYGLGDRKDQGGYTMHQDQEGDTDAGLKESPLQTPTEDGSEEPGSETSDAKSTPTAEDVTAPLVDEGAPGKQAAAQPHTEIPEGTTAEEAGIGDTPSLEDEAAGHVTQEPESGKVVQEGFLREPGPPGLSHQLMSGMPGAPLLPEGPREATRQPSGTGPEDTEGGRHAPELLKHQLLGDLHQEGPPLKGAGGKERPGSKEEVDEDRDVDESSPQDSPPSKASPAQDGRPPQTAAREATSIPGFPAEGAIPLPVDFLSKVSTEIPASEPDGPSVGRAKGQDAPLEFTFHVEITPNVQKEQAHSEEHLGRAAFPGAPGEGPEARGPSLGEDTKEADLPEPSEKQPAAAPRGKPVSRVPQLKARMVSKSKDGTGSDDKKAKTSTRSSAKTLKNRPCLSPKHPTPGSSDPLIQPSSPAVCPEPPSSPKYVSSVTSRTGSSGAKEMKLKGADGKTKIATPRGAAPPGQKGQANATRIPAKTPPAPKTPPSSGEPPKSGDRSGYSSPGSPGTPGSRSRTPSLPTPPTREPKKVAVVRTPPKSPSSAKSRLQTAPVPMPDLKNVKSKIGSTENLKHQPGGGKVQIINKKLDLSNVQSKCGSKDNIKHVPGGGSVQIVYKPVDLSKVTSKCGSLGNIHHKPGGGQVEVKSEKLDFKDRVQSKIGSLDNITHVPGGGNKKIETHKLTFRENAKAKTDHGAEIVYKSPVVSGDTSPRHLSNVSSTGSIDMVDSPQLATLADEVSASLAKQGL

| SMILES | Potency |
| --- | --- |
| COC(=O)Cn1c(=O)c(C)nc2ccccc21 | inactive |
| Cc1ccc(C(=O)COC(=O)c2ccc3c(c2)C(=O)N(c2cccc4ncccc24)C3=O)cc1 | inconclusive: 1.12 µM [inhibitor, full curve] |
| Cc1ccc(NC(=O)c2nc(S(C)(=O)=O)ncc2N(Cc2ccco2)Cc2ccco2)cc1 | inactive |
| C/C(=N\Nc1cccc2cccnc12)c1ccc[nH]1 | active: 4.47 µM |
| CSc1ccccc1NC(=O)c1ccc([N+](=O)[O-])cc1 | inconclusive: 22.4 µM [inhibitor, single point] |
| NNc1ncnc2sc3c(c12)CCC3 | inconclusive: 39.8 µM [inhibitor, single point] |
| N[C@H](CSC(c1ccccc1)(c1ccccc1)c1ccccc1)C(=O)O | inconclusive: 44.7 µM [inhibitor, single point] |
| O=C(Nc1ccc(Br)cc1)c1cc(S(=O)(=O)N2CCc3ccccc32)ccc1F | inactive |
| NC(=O)C[C@@H]1NC(=O)c2cc([N+](=O)[O-])cc(F)c2NCCCC[C@@H](C(N)=O)NC(=O)[C@H](CO)NC1=O | inactive |
| COc1ccc(N(C)S(=O)(=O)c2cccc(C(=O)NC3CCC(C)CC3)c2)cc1 (stereo not given) | inactive |
| COc1ccc(OC)c(-n2nnnc2SCC(=O)Nc2ccc3c(c2)OCCO3)c1 | inactive |
| Cc1ccc(C)n1-c1ccc(C(=O)N/N=C/c2ccncc2)cc1 | inconclusive: 17.8 µM [inhibitor, partial curve] |
| CCOC(=O)c1sc(NC(=O)c2cc(-c3ccc(C)cc3)nc3ccccc23)c(C#N)c1C | inconclusive: 20 µM [inhibitor, partial curve] |
| Clc1ccccc1/C=N/NC1=Nc2cccc3cccc1c23 | active: 2 µM |
| CCn1c2ccccc2c2cc(CNCc3ccc(OC)cc3OC)ccc21 | inconclusive: 17.8 µM [inhibitor, partial curve] |
| CCCC(=O)N1CCN(c2ccc(C(=O)c3ccc(OC)c(Br)c3)cc2F)CC1 | inconclusive: 25.1 µM [inhibitor, single point] |
| CCCCN(CC)CCCNC(=O)c1sc2nc3n(c(=O)c2c1C)CCCCC3 | inconclusive: 1.58 µM [inhibitor, full curve, poor fit] |
| CCCCOC(=O)c1ccc(NC(=S)NC(=O)c2c(Cl)cnn2C)cc1 | inconclusive: 11.2 µM [inhibitor, partial curve] |
| O=C(N/N=C/C(Br)=C/c1ccccc1)c1cnccn1 | inconclusive: 39.8 µM [inhibitor, single point] |
| COc1ccc(C)cc1-n1c(SCC(=O)NCc2ccco2)nc2c([nH]c3ccccc32)c1=O | inactive |
| CCc1ccccc1NC(=O)Cn1nnc(C(=O)NCc2cccc(OC)c2)c1N | inactive |
| CSc1nc(NCc2ccco2)c2c3c(sc2n1)CN(C)CC3 | inconclusive: 35.5 µM [inhibitor, single point] |
| Cc1ccc(N/C=C(\C2OC(=O)c3ccccc32)[N+](=O)[O-])c(C)c1 (stereo not given) | inconclusive: 31.6 µM [inhibitor, single point] |
| C=CCNC(=S)N/N=C/c1ccc(C)c([N+](=O)[O-])c1 | inconclusive: 12.6 µM [inhibitor, partial curve] |

| SMILES | Potency |
| --- | --- |
| CN1CCC/C1=C/C=C1\SC(=S)NC1=O | inconclusive: 14.1 µM [inhibitor, partial curve] |
| CC(C)(C)c1ccc(NC(=O)N2CCCN(c3c(Cl)cncc3Cl)CC2)cc1 | inconclusive: 22.4 µM [inhibitor, partial curve] |
| O=c1[nH]c2cc([N+](=O)[O-])c(NCCO)c([N+](=O)[O-])c2[nH]1 | inconclusive: 10 µM [inhibitor, partial curve] |
| COc1ccc(-c2nnc3sc(-c4ccccc4OC)nn23)cc1 | inconclusive: 15.8 µM [inhibitor, partial curve] |
| CCOC(=O)c1sc2ncnc(N3CCN(C(=O)OCC)CC3)c2c1C | inconclusive: 20 µM [inhibitor, single point] |
| CC(C)C(c1nnnn1Cc1ccc(F)cc1)N1CCN(c2ccc(O)cc2)CC1 (stereo not given) | inconclusive: 11.2 µM [inhibitor, partial curve] |
| C=CCNC(=S)N/N=C/c1ccc(OCc2ccccc2)cc1 | inconclusive: 20 µM [inhibitor, partial curve] |
| COc1cc(C(=O)O/N=C2/C=C(C)C(=O)C=C2C)cc(OC)c1OC | inconclusive: 5.01 µM [inhibitor, partial curve] |
| CCOc1ncccc1C(=O)NCCN1C(=O)S/C(=C/c2cccs2)C1=O | inconclusive: 10 µM [inhibitor, partial curve] |
| C=CCc1cccc(/C=N/NC(=O)CNc2ccccc2OC)c1O | inconclusive: 22.4 µM [inhibitor, partial curve] |
| Oc1ccc(C2CNCc3sccc32)cc1O (stereo not given) | inconclusive: 28.2 µM [inhibitor, partial curve, poor fit] |
| CC(C)Cc1nc(S(=O)(=O)c2ccc(Cl)cc2)c(N2CCOCC2)o1 | inconclusive: 28.2 µM [inhibitor, partial curve] |
| Cc1ccc2[nH]c3c(c2c1)CN(C(=O)CN1c2ccc(F)cc2CCC1C)CC3 (stereo not given) | inconclusive: 15.8 µM [inhibitor, partial curve, poor fit] |
| CCC(=O)c1ccc(OCC(O)Cn2nnc3ccccc32)cc1 (stereo not given) | inconclusive: 2.82 µM [inhibitor, full curve] |
| COc1ccc(C(C)C)cc1S(=O)(=O)NCCc1c(C)[nH]c2c(Cl)cccc12 | inconclusive: 11.2 µM [inhibitor, partial curve] |
| O=C1C(Nc2cccc(O)c2)=C(N2CCCCC2)C(=O)c2ccccc21 | active: 14.1 µM |
| O=C1Cc2cc(S(=O)(=O)Nc3cccc(C(F)(F)F)c3)cc3c2N1CCC3 | inactive |
| Cc1sc(NC(=O)c2cccs2)c(C(=O)OC(C)C)c1C | inactive |
| COc1cc(C2CC(=O)N3CN(c4ccccc4C)CSC3=C2C#N)cc(OC)c1OC (stereo not given) | active: 22.4 µM |
| COC(=O)[C@@]1(Cc2ccc(OC)cc2)[C@H]2c3cc(C(=O)N4CCCC4)n(Cc4ccc(S(C)(=O)=O)cc4)c3C[C@H]2CN1C(=O)c1ccccc1 | inconclusive: 8.91 µM [inhibitor, partial curve, poor fit] |
| Cc1cccn2c(=O)cc(COc3cccc(NC(=O)Nc4cccc(Cl)c4)c3)nc12 | inactive |
| COc1ccc(-n2ccnc(NCCc3ccc(S(N)(=O)=O)cc3)c2=O)cc1Cl | inactive |
| COC(=O)c1[nH]c2cc(OC)ccc2c1NC(=O)c1ccc2c(c1)OCO2 | inconclusive: 2.51 µM [inhibitor, full curve] |
| CC(C)(C)C1=CC=C(C(C)(C)C)C(=O)C1=O | active: 17.8 µM |

| SMILES | Potency |
| --- | --- |
| N=C(N)SCCc1ccc(CCSC(=N)N)cc1 | inactive |
| Cc1cc(C(=O)Nc2cccc(C(=O)O)c2)oc1C | inactive |
| COc1ccccc1NC(=O)C(=O)N/N=C(\C)CC(=O)Nc1ccc(OCc2ccccc2)cc1 | inconclusive: 10 µM [inhibitor, partial curve] |
| COc1cccc(/C=N/Nc2nccnc2Cl)c1O | inconclusive: 8.91 µM [inhibitor, partial curve, poor fit] |
| COc1ccc(CNC(=O)CCn2c(=O)c3cccn3c3ccc(F)cc32)cc1OC | inactive |
| O=C(Oc1ccc(/C=N/O)cc1)c1ccccc1 | inconclusive: 7.94 µM [inhibitor, partial curve, poor fit] |
| CCC(=O)N1CCN(c2ccc(NC(=O)c3ccc4c(c3)OCCO4)cc2)CC1 | inconclusive: 1.58 µM [inhibitor, full curve] |
| O=C(Cn1ncc(Cl)c(Cl)c1=O)N1CCN(Cc2ccccc2)CC1 | inconclusive: 17.8 µM [inhibitor, single point] |
| CC(=O)n1nc(-c2ccccc2)nc1NCc1ccc(N(C)C)cc1 | inconclusive: 15.8 µM [inhibitor, partial curve] |
| CC(C)c1ccc(NC(=O)C2CCC(CNS(=O)(=O)c3ccc4c(c3)CCCC(=O)N4)CC2)cc1 (stereo not given) | inactive |
| CC(C)c1nn2c(=O)cc(COC(=O)c3cccc(NC(=O)CCc4ccccc4)c3)nc2s1 | inconclusive: 2.24 µM [inhibitor, full curve] |
| Cc1cccc(C)c1-n1c(C)cc(/C=N\Nc2ccc([N+](=O)[O-])cn2)c1C | active: 5.01 µM |
| O=C(c1ccc(N2CCCCC2)c([N+](=O)[O-])c1)N1CCN(c2ccccn2)CC1 | inconclusive: 35.5 µM [inhibitor, single point] |
| Cc1cc(Cl)ccc1NNC(=O)c1c(C)noc1C | inconclusive: 31.6 µM [inhibitor, single point] |
| COc1ccc2c(c1)-c1nc(N)sc1CC2 | active: 31.6 µM |
| CC(NC(=O)c1cccs1)C(c1cccs1)N1CCOCC1 (stereo not given) | inactive |
| Cc1cc(OC(C)C(=O)N(Cc2ccco2)Cc2ccco2)cc(C)c1Cl (stereo not given) | inconclusive: 14.1 µM [inhibitor, partial curve] |
| NC(=O)C1=C[C@H](c2csc3ccccc23)C[C@H](OCCCCO)O1 | inconclusive: 6.31 µM [inhibitor, single point] |
| COc1ccccc1/C=N/Nc1nncc2ccccc12 | inactive |
| CCn1c(Cn2nnc(-c3ccccc3)n2)nnc1SCC(=O)Nc1ccc(C(C)=O)cc1 | inconclusive: 14.1 µM [inhibitor, partial curve] |
| COc1ccccc1C(=O)CSc1ccccn1 | inactive |
| CCN(CC)c1ccc2nc3c(=O)n(C)c(=O)n(C)c3nc2c1 | active: 15.8 µM |
